Assay results taken from the RNAGym collection of RNA variant scans (doi:10.1073/pnas.2313332121).
Variants at the background level are over-represented here.

B1: TPR 5TU (parent)
chain: GGAUCUUCUCGAUCUAACAAAAAAGACAAAUCUGCCACAAAGCUUGAGAGCAUCUUCGGAUGCAGAGGCGGCAGCCUUCGGUGGCGCGAUAGCGCCAACGUUCUCAACUAUGACACGCAAAACGCGUGCUCCGUUGAAUGGAGUUUAUCAUG

Variants of: B1
Assay: polymerase ribozyme fitness, log enrichment relative to wild type (log ratio); higher = more active; in vitro selection for triplet polymerase activity
In short: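 In triplicate, a single round of in vitro selection was run on each mutant library, PCR-built and transcribed, covering one subunit of a heterodimeric triplet polymerase ribozyme. Frozen incubation at −7 °C followed annealing with a biotinylated primer, partner subunit and triplets, and extended constructs were then gel-excised, streptavidin-captured and taken through RT-PCR. Fitness is the logarithm of genotype enrichment over wild-type enrichment, from inverse-variance-weighted replicate averages of Illumina-sequenced inputs and outputs. […] only genotypes with ≥10 input reads and ≥1 read per output were kept.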

Q: With A12U C36U G84U as the variant, how does the “polymerase ribozyme fitness (log ratio)” value read?
A: Its value is -4.11.

Q: For A12U C38G A47G C54G U101G U148A, which “polymerase ribozyme fitness (log ratio)” value is on record?
A: Its value is at most -4.2.

Q: Which “polymerase ribozyme fitness (log ratio)” value does the source give for A12U C38U A41C C87U G141A U144A here?
A: Its value is at most -4.2.

Q: With A12U C38U G71A as the variant, how does the “polymerase ribozyme fitness (log ratio)” value read?
A: Its value is at most -4.2.

Q: Which “polymerase ribozyme fitness (log ratio)” value does the source give for A12U C38U U61A A73U G88U C95G C114G here?
A: The value was at most -4.2.

Q: With A12U C43U A73U G100C A115C A120U G143C as the variant, how does the “polymerase ribozyme fitness (log ratio)” value read?
A: The value was at most -4.2.

Q: With A12U C51G G88C C108G G117C as the variant, how does the “polymerase ribozyme fitness (log ratio)” value read?
A: Its value is at most -4.2.

Q: For A12U C51U A64U A89G G94C A110C A147C, which “polymerase ribozyme fitness (log ratio)” value is on record?
A: The value was at most -4.2.

Q: Which “polymerase ribozyme fitness (log ratio)” value does the source give for A12U C54A here?
A: The value was -1.78.

Q: Which “polymerase ribozyme fitness (log ratio)” value does the source give for A12U C54U G58C G68C C79U A91U here?
A: Its value is at most -4.2.

Q: With A12U C54U G86U G143C as the variant, how does the “polymerase ribozyme fitness (log ratio)” value read?
A: Its value is at most -4.2.

Q: With A12U C57G U61G G65U G94U A107C as the variant, how does the “polymerase ribozyme fitness (log ratio)” value read?
A: Its value is at most -4.2.

Q: Which “polymerase ribozyme fitness (log ratio)” value does the source give for A12U C57U G86U C96U A107U A113C C114U A121U G140A A150G here?
A: Its value is at most -4.2.

Q: For A12U C75G A107G C125A, which “polymerase ribozyme fitness (log ratio)” value is on record?
A: Its value is at most -4.2.

Q: With A12U C76G G80A C87A A119U as the variant, how does the “polymerase ribozyme fitness (log ratio)” value read?
A: The value was at most -4.2.

Q: Which “polymerase ribozyme fitness (log ratio)” value does the source give for A12U C85A U135G here?
A: Its value is at most -4.2.

Q: For A12U C85U C87G C118U C132G U144G, which “polymerase ribozyme fitness (log ratio)” value is on record?
A: Its value is at most -4.2.

Q: Which “polymerase ribozyme fitness (log ratio)” value does the source give for A12U C85U G136U here?
A: Its value is -3.16.

Q: For A12U C87U, which “polymerase ribozyme fitness (log ratio)” value is on record?
A: The value was -1.1.

Q: For A12U C87U A120U, which “polymerase ribozyme fitness (log ratio)” value is on record?
A: The value was -0.814.

Q: Which “polymerase ribozyme fitness (log ratio)” value does the source give for A12U C95U A97U C99U G133U A150G here?
A: The value was at most -4.2.

Q: Which “polymerase ribozyme fitness (log ratio)” value does the source give for A12U G25U C63G C76G C87A A150C here?
A: The value was at most -4.2.

Q: For A12U G34C A60U G68U C95G C105A, which “polymerase ribozyme fitness (log ratio)” value is on record?
A: The value was at most -4.2.

Q: With A12U G34C G46A G83A A121U G141U as the variant, how does the “polymerase ribozyme fitness (log ratio)” value read?
A: Its value is at most -4.2.

Q: For A12U G34C G65U C95G A107G A121C U144G, which “polymerase ribozyme fitness (log ratio)” value is on record?
A: Its value is at most -4.2.

Q: With A12U G46A G71A C79U C85A U135C as the variant, how does the “polymerase ribozyme fitness (log ratio)” value read?
A: Its value is at most -4.2.

Q: With A12U G46C A52G G65U C69U U90C A142G as the variant, how does the “polymerase ribozyme fitness (log ratio)” value read?
A: Its value is at most -4.2.

Q: With A12U G48U U53A C54G G71A C75G G86A C95U A119C as the variant, how does the “polymerase ribozyme fitness (log ratio)” value read?
A: The value was at most -4.2.

Q: For A12U G50A C87G G136U, which “polymerase ribozyme fitness (log ratio)” value is on record?
A: Its value is at most -4.2.

Q: For A12U G50C C76A G92U, which “polymerase ribozyme fitness (log ratio)” value is on record?
A: Its value is at most -4.2.

Q: For A12U G50C G62A A64C G65C G88U C95U C118U G141C, which “polymerase ribozyme fitness (log ratio)” value is on record?
A: Its value is at most -4.2.

Q: With A12U G58A A91U as the variant, how does the “polymerase ribozyme fitness (log ratio)” value read?
A: The value was at most -4.2.

Q: For A12U G58U A60U G86C A107U G133U C149G, which “polymerase ribozyme fitness (log ratio)” value is on record?
A: The value was at most -4.2.

Q: Which “polymerase ribozyme fitness (log ratio)” value does the source give for A12U G65C G86C here?
A: The value was at most -4.2.

Q: Which “polymerase ribozyme fitness (log ratio)” value does the source give for A12U G74A A89U C93G here?
A: The value was at most -4.2.

Q: Which “polymerase ribozyme fitness (log ratio)” value does the source give for A12U G80U C108U here?
A: Its value is at most -4.2.

Q: Which “polymerase ribozyme fitness (log ratio)” value does the source give for A12U G81A C85A G92C C93U C103G A106U C114G A147C here?
A: Its value is at most -4.2.

Q: For A12U G81C C85U G100U, which “polymerase ribozyme fitness (log ratio)” value is on record?
A: The value was at most -4.2.

Q: For A12U G84A, which “polymerase ribozyme fitness (log ratio)” value is on record?
A: The value was -1.05.

Q: For A12U G84C C93U G140A, which “polymerase ribozyme fitness (log ratio)” value is on record?
A: Its value is at most -4.2.

Q: Which “polymerase ribozyme fitness (log ratio)” value does the source give for A12U G92U C125U here?
A: The value was -1.06.

Q: For A12U U13A A20U A29G C69A C76A C95A G112C A113C A150G, which “polymerase ribozyme fitness (log ratio)” value is on record?
A: The value was at most -4.2.

Q: For A12U U15A A24C G70A A110G A122C, which “polymerase ribozyme fitness (log ratio)” value is on record?
A: Its value is at most -4.2.

Q: For A12U U15C A17C C18G C35G C54U A66U A91U, which “polymerase ribozyme fitness (log ratio)” value is on record?
A: Its value is at most -4.2.

Q: Which “polymerase ribozyme fitness (log ratio)” value does the source give for A12U U15G A39U G86U U102G C116U here?
A: The value was at most -4.2.

Q: Which “polymerase ribozyme fitness (log ratio)” value does the source give for A12U U15G C38U C69A G81U U82C G84A A150U here?
A: The value was at most -4.2.

Q: For A12U U31A U44A U53A A66C C75G C93G, which “polymerase ribozyme fitness (log ratio)” value is on record?
A: Its value is at most -4.2.

Q: For A12U U31G C35G A64U G100A G133U, which “polymerase ribozyme fitness (log ratio)” value is on record?
A: Its value is at most -4.2.

Q: Which “polymerase ribozyme fitness (log ratio)” value does the source give for A12U U31G C54G C93G G100U here?
A: Its value is at most -4.2.

Q: For A12U U45A G83U G126U, which “polymerase ribozyme fitness (log ratio)” value is on record?
A: Its value is at most -4.2.

Q: For A12U U45G A52G U77G C85U U146G, which “polymerase ribozyme fitness (log ratio)” value is on record?
A: Its value is at most -4.2.

Q: Which “polymerase ribozyme fitness (log ratio)” value does the source give for A12U U53A C57U C93U U111G G112C G136A U146A here?
A: The value was at most -4.2.

Q: Which “polymerase ribozyme fitness (log ratio)” value does the source give for A12U U53A C72A C87U U139A G152A here?
A: The value was at most -4.2.

Q: For A12U U53A G141U, which “polymerase ribozyme fitness (log ratio)” value is on record?
A: Its value is -1.08.

Q: With A12U U55A C57G C103A G128U A147C as the variant, how does the “polymerase ribozyme fitness (log ratio)” value read?
A: The value was -4.11.

Q: For A12U U56A C63G G74C C93A, which “polymerase ribozyme fitness (log ratio)” value is on record?
A: The value was at most -4.2.

Q: Which “polymerase ribozyme fitness (log ratio)” value does the source give for A12U U90A A147C here?
A: The value was at most -4.2.

Q: For U13A A16U A29C A37U G140C, which “polymerase ribozyme fitness (log ratio)” value is on record?
A: Its value is at most -4.2.

Q: Which “polymerase ribozyme fitness (log ratio)” value does the source give for U13A A17G G48A A66C G84U G112U here?
A: The value was at most -4.2.

Q: With U13A A17U C32A U56G C76A G88A A106G U134A U145G U148C as the variant, how does the “polymerase ribozyme fitness (log ratio)” value read?
A: Its value is at most -4.2.

Q: With U13A A19G C27U C38A A91U G94U C129G G141U as the variant, how does the “polymerase ribozyme fitness (log ratio)” value read?
A: Its value is at most -4.2.

Q: With U13A A19G C63U G83C A97U G141C as the variant, how does the “polymerase ribozyme fitness (log ratio)” value read?
A: The value was at most -4.2.

Q: With U13A A19U U44G G59C C93A C105U as the variant, how does the “polymerase ribozyme fitness (log ratio)” value read?
A: The value was at most -4.2.

Q: Which “polymerase ribozyme fitness (log ratio)” value does the source give for U13A A20C A28U A64G A122G G141A here?
A: The value was at most -4.2.

Q: Which “polymerase ribozyme fitness (log ratio)” value does the source give for U13A A20C U44A G68U C76U A97C A98U C99A here?
A: The value was at most -4.2.

Q: For U13A A20C U78A A89U A91U A137G, which “polymerase ribozyme fitness (log ratio)” value is on record?
A: The value was at most -4.2.

Q: Which “polymerase ribozyme fitness (log ratio)” value does the source give for U13A A20U A29C G74A G117A G124C here?
A: The value was at most -4.2.

Q: Which “polymerase ribozyme fitness (log ratio)” value does the source give for U13A A21C C27A C54A U55G A122U G136C C149G here?
A: Its value is at most -4.2.

Q: With U13A A22U A41C U53G as the variant, how does the “polymerase ribozyme fitness (log ratio)” value read?
A: Its value is -2.31.

Q: With U13A A22U A89G C95A as the variant, how does the “polymerase ribozyme fitness (log ratio)” value read?
A: The value was -1.67.

Q: Which “polymerase ribozyme fitness (log ratio)” value does the source give for U13A A24U C87A C123A here?
A: Its value is at most -4.2.

Q: Which “polymerase ribozyme fitness (log ratio)” value does the source give for U13A A26U C27U C36A U56C here?
A: The value was at most -4.2.

Q: For U13A A29G A49U U55A G83C, which “polymerase ribozyme fitness (log ratio)” value is on record?
A: The value was at most -4.2.

Q: With U13A A40G G86U U104G C108A G141A as the variant, how does the “polymerase ribozyme fitness (log ratio)” value read?
A: The value was at most -4.2.

Q: Which “polymerase ribozyme fitness (log ratio)” value does the source give for U13A A40G U77A C87G C99G G117U here?
A: The value was at most -4.2.

Q: Which “polymerase ribozyme fitness (log ratio)” value does the source give for U13A A41U A64C C87A C108G here?
A: The value was at most -4.2.

Q: With U13A A73U A89U C96U A106C as the variant, how does the “polymerase ribozyme fitness (log ratio)” value read?
A: The value was at most -4.2.

Q: Which “polymerase ribozyme fitness (log ratio)” value does the source give for U13A A110G here?
A: The value was at most -4.2.

Q: Which “polymerase ribozyme fitness (log ratio)” value does the source give for U13A C14U A39U A40U A49C C57A C69A U134G U139C G141U U148G here?
A: The value was at most -4.2.

Q: Which “polymerase ribozyme fitness (log ratio)” value does the source give for U13A C18U C51U A52U G74U U82A G117A A120C A150U here?
A: The value was at most -4.2.

Q: Which “polymerase ribozyme fitness (log ratio)” value does the source give for U13A C27G C96U G141U here?
A: The value was at most -4.2.

Q: With U13A C27G U82G U151C as the variant, how does the “polymerase ribozyme fitness (log ratio)” value read?
A: Its value is at most -4.2.

Q: With U13A C32G A60G C75A C79A A120G as the variant, how does the “polymerase ribozyme fitness (log ratio)” value read?
A: The value was at most -4.2.

Q: With U13A C32U A40C G50U G84U C95U C125G U145C as the variant, how does the “polymerase ribozyme fitness (log ratio)” value read?
A: The value was at most -4.2.
